In PMC10691697, “A small molecule exerts selective antiviral activity by targeting the human cytomegalovirus nuclear egress complex” (PLOS Pathogens, 2023):

What was measured:
Experiment in all cases: biochemical
Format in all cases: binding
UL50_C54S+UL53 = target: T1, UL50_C54S+UL53 (Human cytomegalovirus, UniProt P16794); conditions: replicates, read-out: normalized FRET signal relative to control without inhibitor; for remaining activity at 1.56 µM: 1.56 μM compound; for remaining activity at 50 µM: 50.00 μM compound; for remaining activity at 25 µM: […] compound
T1 construct: GST (N, cleaved yes); 13-residue glycine-serine linker […]; made in house; host or cells: E. coli BL21 (DE3) RIPL

UL50_C35N+UL53 = target: T2, UL50_C35N+UL53 (Human cytomegalovirus, UniProt P16794); conditions: replicates, read-out: normalized FRET signal relative to control without inhibitor; for remaining activity at 1.56 µM: 1.56 μM compound; for remaining activity at 50 µM: 50.00 μM compound; for remaining activity at 25 µM: […] compound
T2 construct: GST (N, cleaved yes); 13-residue glycine-serine linker […]; made in house; host or cells: E. coli BL21 (DE3) RIPL

UL50_C79S+UL53 = target: T3, UL50_C79S+UL53 (Human cytomegalovirus, UniProt P16794); conditions: replicates, read-out: normalized FRET signal relative to control without inhibitor; for remaining activity at 1.56 µM: 1.56 μM compound; for remaining activity at 25 µM: […] compound
T3 construct: GST (N, cleaved yes); 13-residue glycine-serine linker […]; made in house; host or cells: E. coli BL21 (DE3) RIPL

Row | Structure (SMILES) | remaining activity at 1.56 µM (UL50_C54S+UL53) [%] | remaining activity at 50 µM (UL50_C54S+UL53) [%] | remaining activity at 25 µM (UL50_C54S+UL53) [%] | remaining activity at 1.56 µM (UL50_C35N+UL53) [%] | remaining activity at 50 µM (UL50_C35N+UL53) [%] | remaining activity at 25 µM (UL50_C35N+UL53) [%] | remaining activity at 1.56 µM (UL50_C79S+UL53) [%] | remaining activity at 25 µM (UL50_C79S+UL53) [%]
1 | C=CC(=O)Nc1cccc(Oc2cc(Cl)nc3[nH]ccc23)c1 [GK1] | 81 | 30 | 33 | 100 | 37 | 55 | 100 | 63
2 | C=CC(=O)Nc1cccc(Oc2ccnc3[nH]ccc23)c1 [GK2] | 89 | 48 | 88 | 98 | 57 | 74 | 100 | 67
